# Measurements taken from article PMC5522753 (Bioorganic & medicinal chemistry letters, 2016).
# What was measured:
# [1] = cited from earlier work
# [2] = test system: B and T cells from healthy donors; experiment: Differential cytotoxicity: normal B and T-lymphocytes versus CLL cells; details: Figure 2
# [3] = test system: A3 (human acute T cell leukemia); experiment: Antitumor activity toward A3 cells; assay type: cell-based; details: read-out: IC50 A3
# [4] = test system: various cancer cell lines; experiment: Antitumor activity toward various cancer cell lines; assay type: cell-based
# [5] = test system: HeLa cells; experiment: Cytotoxicity toward HeLa cells; assay type: cell-based
# [6] = Human plasma protein binding and recovery
# [7] = test system: primary human chronic lymphocytic leukemia cells (CLL); experiment: Cytotoxicity toward primary CLL cells; assay type: cell-based
smiles,measurement,setting,value
"CN1C(=O)N[C@H]2[C@@H]3NC(=O)c4ccc(Br)n4[C@@H]3C[C@]21O [AglA (1), (−)-Agelastatin A]",blood-brain barrier penetration,[1],excellent blood-brain barrier penetration
same,toxicity toward B and T cells from healthy donors compared to CLL cells,[2],less toxic toward B and T cells from healthy donors
"CN1C(=O)N[C@H]2[C@@H]3NC(=O)c4cc(Br)c(Br)n4[C@@H]3C[C@]21O [AglB (4), AgelB]",IC50,[3],> 1000 nM
same,fold less potent than AglA toward all cell lines,[4]; all cell lines of Table 2,~ 10 X
"CN1C(=O)N[C@H]2[C@@H]3NC(=O)c4cc(Cl)c(Br)n4[C@@H]3C[C@]21O [Compound 3, 14-chloro AglA]",potency increase toward HeLa cells versus C14-Br,[5]; C14-chloro versus C14-bromo derivative,17 X
same,activity relative to AglA toward various cancer cell lines (in words),[4]; Table 2 cell lines,comparable activity to AglA
same,recovery / stability in plasma (in words),[6],full recovery
same,plasma protein binding (in words),[6]; human plasma and FBS,not highly protein bound
"CN1C(=O)N[C@H]2[C@@H]3NC(=O)c4c(Br)c(Br)c(Br)n4[C@@H]3C[C@]21O [Compound 5, 15-bromoAgelB]",activity toward HeLa cells (in words),[5],inactive
Cc1c(Br)c(Br)n2c1C(=O)N[C@@H]1[C@H]2C[C@]2(O)[C@H]1NC(=O)N2C [Compound 7],activity toward HeLa cells (in words),[5],inactive
Cc1c(C)c2n(c1Br)[C@@H]1C[C@]3(O)[C@@H](NC(=O)N3C)[C@@H]1NC2=O [Compound 8],activity toward HeLa cells (in words),[5],no activity was observed
CN1C(=O)N[C@H]2[C@@H]3NC(=O)c4cc(-c5ccccc5)c(-c5ccccc5)n4[C@@H]3C[C@]21O [Compound 10],activity toward CLL cells (in words),[7],did not show significant activity
same,activity toward HeLa cells (in words),[5],did not show significant activity
CN1C(=O)N[C@H]2[C@@H]3NC(=O)c4ccc(Br)n4[C@@H]3C[C@]21N [Compound 18],reduction of activity toward HeLa cells versus AglA,[5]; 0.084 μM to 17 μM,~ 200 X
Cc1ccc2n1[C@@H]1C[C@]3(O)[C@@H](NC(=O)N3C)[C@@H]1NC2=O [Compound 25],IC50,[3],> 1000 nM
